Laboratory results as given in PMC6884552, “Glycogen branching enzyme controls cellular iron homeostasis via Iron Regulatory Protein 1 and mitoNEET” (Nature Communications, 2019).
No constants are given. Whether binding was seen depends on the method and setting. In cells and extracts the contact can be indirect. Some entries that bind do so weakly or less than the wild type. Sequences can lack the tags named with a protein.

T1: Myc-tagged Drosophila 1,4-Alpha-Glucan Branching Enzyme (AGBE) (Drosophila) (UniProt A1Z992)
T1 sequence: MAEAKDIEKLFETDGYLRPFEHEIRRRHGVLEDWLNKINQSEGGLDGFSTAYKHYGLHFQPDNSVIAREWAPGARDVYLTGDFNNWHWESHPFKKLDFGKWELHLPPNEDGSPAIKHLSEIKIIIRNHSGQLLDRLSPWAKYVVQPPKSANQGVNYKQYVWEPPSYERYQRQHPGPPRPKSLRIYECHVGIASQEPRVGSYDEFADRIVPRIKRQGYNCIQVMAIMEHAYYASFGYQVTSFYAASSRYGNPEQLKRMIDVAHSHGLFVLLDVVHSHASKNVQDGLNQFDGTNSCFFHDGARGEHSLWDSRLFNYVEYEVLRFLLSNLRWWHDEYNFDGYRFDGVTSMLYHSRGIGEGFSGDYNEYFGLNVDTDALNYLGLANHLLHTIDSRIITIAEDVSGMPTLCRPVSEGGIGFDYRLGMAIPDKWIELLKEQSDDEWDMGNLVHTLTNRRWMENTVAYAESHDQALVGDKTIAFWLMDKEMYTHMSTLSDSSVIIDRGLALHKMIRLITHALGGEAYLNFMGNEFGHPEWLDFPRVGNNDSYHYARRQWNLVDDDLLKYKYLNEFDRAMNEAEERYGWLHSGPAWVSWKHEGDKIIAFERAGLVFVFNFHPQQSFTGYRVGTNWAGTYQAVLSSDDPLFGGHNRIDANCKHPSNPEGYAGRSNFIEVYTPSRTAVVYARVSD

T2: Flag-tagged Drosophila Iron Regulatory Protein 1A (IRP1A), wild type (Drosophila) (UniProt Q9VCV4)
T2 sequence: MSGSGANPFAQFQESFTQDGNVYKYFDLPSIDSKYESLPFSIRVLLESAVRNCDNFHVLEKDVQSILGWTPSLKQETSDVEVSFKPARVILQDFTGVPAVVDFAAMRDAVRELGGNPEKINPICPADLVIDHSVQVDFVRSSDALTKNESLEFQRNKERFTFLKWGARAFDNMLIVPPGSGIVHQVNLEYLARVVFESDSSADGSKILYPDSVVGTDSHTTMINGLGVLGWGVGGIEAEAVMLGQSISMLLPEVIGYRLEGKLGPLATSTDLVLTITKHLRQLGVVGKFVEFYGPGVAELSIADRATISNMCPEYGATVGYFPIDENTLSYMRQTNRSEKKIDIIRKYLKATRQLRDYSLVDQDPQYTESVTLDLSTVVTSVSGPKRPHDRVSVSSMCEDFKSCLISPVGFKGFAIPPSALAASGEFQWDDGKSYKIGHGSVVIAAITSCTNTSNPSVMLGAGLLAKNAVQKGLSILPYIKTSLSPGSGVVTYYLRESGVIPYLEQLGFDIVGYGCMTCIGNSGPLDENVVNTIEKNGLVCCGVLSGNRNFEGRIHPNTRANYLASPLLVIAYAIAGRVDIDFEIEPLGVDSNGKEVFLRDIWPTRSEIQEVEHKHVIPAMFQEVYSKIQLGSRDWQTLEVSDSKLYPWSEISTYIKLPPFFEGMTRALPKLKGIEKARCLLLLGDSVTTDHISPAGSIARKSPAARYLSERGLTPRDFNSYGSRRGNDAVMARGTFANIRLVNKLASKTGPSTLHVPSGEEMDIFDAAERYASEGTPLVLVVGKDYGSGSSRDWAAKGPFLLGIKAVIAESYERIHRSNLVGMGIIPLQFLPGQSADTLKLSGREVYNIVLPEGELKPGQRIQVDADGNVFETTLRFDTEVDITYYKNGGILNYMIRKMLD

T3: Myc-tagged human Glycogen Branching Enzyme 1 (GBE1) (human) (UniProt Q04446)
T3 sequence: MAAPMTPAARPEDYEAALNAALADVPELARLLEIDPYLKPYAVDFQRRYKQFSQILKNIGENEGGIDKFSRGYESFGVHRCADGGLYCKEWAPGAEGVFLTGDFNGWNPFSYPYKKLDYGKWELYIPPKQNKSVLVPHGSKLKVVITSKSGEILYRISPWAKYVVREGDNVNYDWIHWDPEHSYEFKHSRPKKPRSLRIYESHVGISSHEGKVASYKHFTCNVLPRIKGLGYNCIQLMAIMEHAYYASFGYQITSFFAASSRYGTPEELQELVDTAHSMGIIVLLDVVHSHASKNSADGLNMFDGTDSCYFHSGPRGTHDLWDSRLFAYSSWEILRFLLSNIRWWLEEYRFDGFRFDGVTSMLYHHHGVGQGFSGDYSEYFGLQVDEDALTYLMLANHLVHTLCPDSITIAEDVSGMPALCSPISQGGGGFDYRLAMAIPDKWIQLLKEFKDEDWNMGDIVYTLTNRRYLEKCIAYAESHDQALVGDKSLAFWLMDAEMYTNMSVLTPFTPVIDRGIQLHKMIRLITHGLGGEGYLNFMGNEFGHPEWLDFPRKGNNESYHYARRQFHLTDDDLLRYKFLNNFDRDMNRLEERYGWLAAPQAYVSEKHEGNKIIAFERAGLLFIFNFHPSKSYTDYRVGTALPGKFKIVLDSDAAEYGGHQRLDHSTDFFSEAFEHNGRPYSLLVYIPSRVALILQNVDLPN


Assays:
Test in all cases: co-IP; S2 cells co-transfected with two tagged cDNAs; Myc-tagged baits on Myc-Trap agarose, Flag-tagged baits on M2 Flag agarose; Western blot with anti-Flag, anti-HA or anti-Myc
[1] = target: T1, Myc-tagged Drosophila 1,4-Alpha-Glucan Branching Enzyme (AGBE) (Drosophila)
[2] = target: T2, Flag-tagged Drosophila Iron Regulatory Protein 1A (IRP1A), wild type (Drosophila)
[3] = target: T3, Myc-tagged human Glycogen Branching Enzyme 1 (GBE1) (human)

binding [1]	binding [2]	binding [3]	Binder
binds	–	–	Flag-tagged Drosophila Iron Regulatory Protein 1A (IRP1A), wild type (protein, UniProt Q9VCV4 1-902) MSGSGANPFAQFQESFTQDGNVYKYFDLPSIDSKYESLPFSIRVLLESAVRNCDNFHVLEKDVQSILGWTPSLKQETSDVEVSFKPARVILQDFTGVPAVVDFAAMRDAVRELGGNPEKINPICPADLVIDHSVQVDFVRSSDALTKNESLEFQRNKERFTFLKWGARAFDNMLIVPPGSGIVHQVNLEYLARVVFESDSSADGSKILYPDSVVGTDSHTTMINGLGVLGWGVGGIEAEAVMLGQSISMLLPEVIGYRLEGKLGPLATSTDLVLTITKHLRQLGVVGKFVEFYGPGVAELSIADRATISNMCPEYGATVGYFPIDENTLSYMRQTNRSEKKIDIIRKYLKATRQLRDYSLVDQDPQYTESVTLDLSTVVTSVSGPKRPHDRVSVSSMCEDFKSCLISPVGFKGFAIPPSALAASGEFQWDDGKSYKIGHGSVVIAAITSCTNTSNPSVMLGAGLLAKNAVQKGLSILPYIKTSLSPGSGVVTYYLRESGVIPYLEQLGFDIVGYGCMTCIGNSGPLDENVVNTIEKNGLVCCGVLSGNRNFEGRIHPNTRANYLASPLLVIAYAIAGRVDIDFEIEPLGVDSNGKEVFLRDIWPTRSEIQEVEHKHVIPAMFQEVYSKIQLGSRDWQTLEVSDSKLYPWSEISTYIKLPPFFEGMTRALPKLKGIEKARCLLLLGDSVTTDHISPAGSIARKSPAARYLSERGLTPRDFNSYGSRRGNDAVMARGTFANIRLVNKLASKTGPSTLHVPSGEEMDIFDAAERYASEGTPLVLVVGKDYGSGSSRDWAAKGPFLLGIKAVIAESYERIHRSNLVGMGIIPLQFLPGQSADTLKLSGREVYNIVLPEGELKPGQRIQVDADGNVFETTLRFDTEVDITYYKNGGILNYMIRKMLD
binds	–	–	Flag-tagged Drosophila IRP1A 3R3Q (protein, UniProt Q9VCV4 1-902) MSGSGANPFAQFQESFTQDGNVYKYFDLPSIDSKYESLPFSIRVLLESAVRNCDNFHVLEKDVQSILGWTPSLKQETSDVEVSFKPARVILQDFTGVPAVVDFAAMRDAVRELGGNPEKINPICPADLVIDHSVQVDFVRSSDALTKNESLEFQRNKERFTFLKWGARAFDNMLIVPPGSGIVHQVNLEYLARVVFESDSSADGSKILYPDSVVGTDSHTTMINGLGVLGWGVGGIEAEAVMLGQSISMLLPEVIGYRLEGKLGPLATSTDLVLTITKHLRQLGVVGKFVEFYGPGVAELSIADRATISNMCPEYGATVGYFPIDENTLSYMRQTNRSEKKIDIIRKYLKATRQLRDYSLVDQDPQYTESVTLDLSTVVTSVSGPKRPHDRVSVSSMCEDFKSCLISPVGFKGFAIPPSALAASGEFQWDDGKSYKIGHGSVVIAAITSCTNTSNPSVMLGAGLLAKNAVQKGLSILPYIKTSLSPGSGVVTYYLRESGVIPYLEQLGFDIVGYGCMTCIGNSGPLDENVVNTIEKNGLVCCGVLSGNQNFEGQIHPNTRANYLASPLLVIAYAIAGRVDIDFEIEPLGVDSNGKEVFLRDIWPTRSEIQEVEHKHVIPAMFQEVYSKIQLGSRDWQTLEVSDSKLYPWSEISTYIKLPPFFEGMTRALPKLKGIEKARCLLLLGDSVTTDHISPAGSIARKSPAARYLSERGLTPRDFNSYGSRRGNDAVMARGTFANIRLVNKLASKTGPSTLHVPSGEEMDIFDAAERYASEGTPLVLVVGKDYGSGSSQDWAAKGPFLLGIKAVIAESYERIHRSNLVGMGIIPLQFLPGQSADTLKLSGREVYNIVLPEGELKPGQRIQVDADGNVFETTLRFDTEVDITYYKNGGILNYMIRKMLD
no binding	–	–	Flag-tagged Drosophila IRP1A C450S (protein, UniProt Q9VCV4 1-902) MSGSGANPFAQFQESFTQDGNVYKYFDLPSIDSKYESLPFSIRVLLESAVRNCDNFHVLEKDVQSILGWTPSLKQETSDVEVSFKPARVILQDFTGVPAVVDFAAMRDAVRELGGNPEKINPICPADLVIDHSVQVDFVRSSDALTKNESLEFQRNKERFTFLKWGARAFDNMLIVPPGSGIVHQVNLEYLARVVFESDSSADGSKILYPDSVVGTDSHTTMINGLGVLGWGVGGIEAEAVMLGQSISMLLPEVIGYRLEGKLGPLATSTDLVLTITKHLRQLGVVGKFVEFYGPGVAELSIADRATISNMCPEYGATVGYFPIDENTLSYMRQTNRSEKKIDIIRKYLKATRQLRDYSLVDQDPQYTESVTLDLSTVVTSVSGPKRPHDRVSVSSMCEDFKSCLISPVGFKGFAIPPSALAASGEFQWDDGKSYKIGHGSVVIAAITSSTNTSNPSVMLGAGLLAKNAVQKGLSILPYIKTSLSPGSGVVTYYLRESGVIPYLEQLGFDIVGYGCMTCIGNSGPLDENVVNTIEKNGLVCCGVLSGNRNFEGRIHPNTRANYLASPLLVIAYAIAGRVDIDFEIEPLGVDSNGKEVFLRDIWPTRSEIQEVEHKHVIPAMFQEVYSKIQLGSRDWQTLEVSDSKLYPWSEISTYIKLPPFFEGMTRALPKLKGIEKARCLLLLGDSVTTDHISPAGSIARKSPAARYLSERGLTPRDFNSYGSRRGNDAVMARGTFANIRLVNKLASKTGPSTLHVPSGEEMDIFDAAERYASEGTPLVLVVGKDYGSGSSRDWAAKGPFLLGIKAVIAESYERIHRSNLVGMGIIPLQFLPGQSADTLKLSGREVYNIVLPEGELKPGQRIQVDADGNVFETTLRFDTEVDITYYKNGGILNYMIRKMLD
binds	binds	–	HA-tagged Drosophila Cisd2 (natural protein, UniProt Q9VAM6 1-133, looked up, Drosophila Cisd2, cDNA RE49709; also called mitoNEET; Cisd2/mitoNEET; source: S2 cells, transfected, in lysate) MEPISHLVKSSLPNYLSSLPVPDSIGGWFKLSFKDWLALIPPTVVVAGLGYTAYLAYCPAARASCAAKNSGRCNNHIRKNEPKVVDMIDVEDIAEKAAFCRCWKTKNWPYCDGSHGEHNKQTGDNVGPIVIKK
–	–	binds	Flag-tagged human Iron Regulatory Protein 1 (IRP1) (protein, UniProt P21399 1-889) MSNPFAHLAEPLDPVQPGKKFFNLNKLEDSRYGRLPFSIRVLLEAAIRNCDEFLVKKQDIENILHWNVTQHKNIEVPFKPARVILQDFTGVPAVVDFAAMRDAVKKLGGDPEKINPVCPADLVIDHSIQVDFNRRADSLQKNQDLEFERNRERFEFLKWGSQAFHNMRIIPPGSGIIHQVNLEYLARVVFDQDGYYYPDSLVGTDSHTTMIDGLGILGWGVGGIEAEAVMLGQPISMVLPQVIGYRLMGKPHPLVTSTDIVLTITKHLRQVGVVGKFVEFFGPGVAQLSIADRATIANMCPEYGATAAFFPVDEVSITYLVQTGRDEEKLKYIKKYLQAVGMFRDFNDPSQDPDFTQVVELDLKTVVPCCSGPKRPQDKVAVSDMKKDFESCLGAKQGFKGFQVAPEHHNDHKTFIYDNTEFTLAHGSVVIAAITSCTNTSNPSVMLGAGLLAKKAVDAGLNVMPYIKTSLSPGSGVVTYYLQESGVMPYLSQLGFDVVGYGCMTCIGNSGPLPEPVVEAITQGDLVAVGVLSGNRNFEGRVHPNTRANYLASPPLVIAYAIAGTIRIDFEKEPLGVNAKGQQVFLKDIWPTRDEIQAVERQYVIPGMFKEVYQKIETVNESWNALATPSDKLFFWNSKSTYIKSPPFFENLTLDLQPPKSIVDAYVLLNLGDSVTTDHISPAGNIARNSPAARYLTNRGLTPREFNSYGSRRGNDAVMARGTFANIRLLNRFLNKQAPQTIHLPSGEILDVFDAAERYQQAGLPLIVLAGKEYGAGSSRDWAAKGPFLLGIKAVLAESYERIHRSNLVGMGVIPLEYLPGENADALGLTGQERYTIIIPENLKPQMKVQVKLDTGKTFQAVMRFDTDVELTYFLNGGILNYMIRKMAK
